# PubChem BioAssay AID686979 (National Center for Advancing Translational Sciences (NCATS), 2013)
# About 50,000 (12%) of roughly 420,000 compounds were called active. Inconclusive means that the source gave no clear call. Such entries were picked first, then a sample of the others. Calls come from the whole dose curve; as a rule, active = well fitted inhibition curve with a large enough effect; inconclusive = small, poorly fitted or top-dose-only effect; inactive = flat fitted curve, though single readings scatter. Potencies of inconclusive entries are left out as doubtful fits.
# Assay: qHTS for Inhibitors of human tyrosyl-DNA phosphodiesterase 1 (TDP1): qHTS in cells in presence of CPT; note: nearly all actives have a fitted effect of over 55% in size
# Settings: chicken DT40 Tdp1-/-;hTDP1 cells + 20 nM CPT, ATP luminescence, 48 h; series mostly up to 46.2 µM
# Procedure, shortened: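 Chicken DT40 Tdp1-/- cells stably complemented with human TDP1 were seeded at 400 cells/well in medium containing 20 nM camptothecin, exposed to pin-transferred compounds, and grown at 37 °C for at least 48 hr. Viability was read as ATP luminescence.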
# Potency is the fitted concentration of half-maximal effect; tags give direction and shape of the fitted curve.
row,Compound,Potency
1,CS(=O)(=O)N1CCC(C(=O)Nc2ccc(F)c(Cl)c2)CC1,inactive
2,CCc1sc(C(=O)Nc2cc(Cl)ccc2N2CCCCC2)cc1C,"inconclusive [inhibitor, single point]"
3,CCOC(=O)c1cnc(Nc2nc3ccccc3o2)nc1CSc1nnc(C)s1,active: 3.26 µM
4,O=C(NCCc1ccc(F)cc1)C(=O)NCC(c1cccs1)S(=O)(=O)c1cccs1 (stereo unspecified),"inconclusive [inhibitor, partial curve]"
5,CCCCn1nc(C(=O)NC2CCCCCC2)c2ccccc2c1=O,"inconclusive [inhibitor, partial curve, poor fit]"
6,CCc1ccc(-c2csc(NC(=O)C3CC(=O)N(c4ccc5c(c4)OCCO5)C3)n2)cc1 (stereo unspecified),active: 16.4 µM
7,Cc1nn(C)cc1CNC(=O)Nc1cccc(Cl)c1,inactive
8,Cc1cccn2c(=O)c3cc(C(=O)N4COCC4(C)C)n(Cc4ccccc4)c3nc12,inactive
9,O=S(=O)(c1ccc(Cl)cc1)n1c(Cc2ccccc2)nc2ccccc21,"inconclusive [inhibitor, partial curve]"
10,O=C(NCCc1cccs1)c1ccc(CS(=O)Cc2ccc(Cl)cc2)o1 (stereo unspecified),"inconclusive [inhibitor, single point]"
11,CCCCCCNCc1ccc(Br)cc1,"inconclusive [inhibitor, partial curve]"
12,CSc1ncc(C(=O)Nc2ccccc2F)c(-c2ccccc2)n1,inactive
13,COc1ccc(C(OC(=O)c2ccco2)C(=O)NC2CCCC2)cc1OC (stereo unspecified),"inconclusive [inhibitor, single point]"
14,C=CCN1c2ccccc2[C@]23C[C@@H](C(=O)OC)N(C(=O)c4ccco4)C2=NC(C(=O)OC)=C(C(=O)OC)[C@H]13,"inconclusive [inhibitor, single point]"
15,Fc1ccccc1-c1nc(NC2CCCC2)c2ccccc2n1,inactive
16,COC(=O)CC1C(=O)NCCN1C(=O)c1ccc2oc(C(C)C)nc2c1 (stereo unspecified),"inconclusive [inhibitor, single point]"
17,C1=CC2=NC34CCCCC3CC3=C(CCCC3)N4C2=CC1=NC1CCCCC1 (stereo unspecified),active: 5.17 µM
18,CC(C)C[C@H]1CN=C(Nc2ccccc2)N1CCCCc1ccccc1,active: 25.9 µM
19,COC(=O)c1ccc(CSc2nnc(C)s2)cc1,active: 11.6 µM
20,Cc1noc(C)c1COc1ccccc1C(=O)N(C)Cc1ccco1,"inconclusive [inhibitor, single point]"
21,COc1ccc(NC(=O)CSC2=Nc3ccccc3C3=NC(CCC(=O)NCCc4ccccc4)C(=O)N23)cc1 (stereo unspecified),inactive
22,CCN1C(=O)C(O)(c2c(C)[nH]c3ccccc23)c2ccccc21 (stereo unspecified),"inconclusive [inhibitor, single point]"
23,O=[N+]([O-])c1cccc(S(=O)(=O)NCCOc2cccc3cccnc23)c1,"inconclusive [inhibitor, partial curve]"
24,CCOc1ccc(CN2CCN(CCCc3ccccc3)CC2CCO)cc1 (stereo unspecified),"inconclusive [inhibitor, single point]"

row,Compound,Potency
1,Cc1nnsc1-c1onc(C)c1C(=O)Nc1cc(Cl)cc(Cl)c1,"inconclusive [inhibitor, single point]"
2,c1ccc(-c2nc(NC3CCCC3)c3ccccc3n2)cc1,"inconclusive [inhibitor, partial curve]"
3,CCOC(=O)N1CCC(NC(=O)c2cnn(-c3cccc(C)c3)c2-n2cccc2)CC1,active: 16.4 µM
4,CC(C)CCOP(=O)(c1ccccc1)c1ccccc1,"inconclusive [inhibitor, single point]"
5,CC(C)Oc1ccc(S(=O)(=O)N2CCOCC2)cc1NC(=O)CN1C(=O)NC2(CCCC2)C1=O,inactive
6,CNC(=O)c1sc(N2N=C3/C(=C\c4ccccc4)CCCC3C2c2ccccc2)nc1C (stereo unspecified),"inconclusive [inhibitor, single point]"
7,CCCCNC(=O)c1sc2nc(C)cc(COC)c2c1-n1cccc1,active: 16.4 µM
8,O=C(COC(=O)C1=Cc2ccccc2OC1)NCc1ccccc1,"inconclusive [inhibitor, single point]"
9,O=C(N/N=C/c1cc(Cl)cc([N+](=O)[O-])c1O)c1cccc(S(=O)(=O)N2CCOCC2)c1,inactive
10,CC1Sc2ccc(S(=O)(=O)CCC(=O)NCc3ccc(Cl)cc3)cc2NC1=O (stereo unspecified),"inconclusive [inhibitor, single point]"
11,COC(=O)c1ccc(OC)c(CN2CCCN(Cc3cc(C)ccc3C)S2(=O)=O)c1,"inconclusive [inhibitor, single point]"
12,CC/C(=N\NC(=O)c1cc(C)oc1C)c1ccc(OC(F)F)cc1,"inconclusive [inhibitor, single point]"
13,C/C(Cn1cnc([N+](=O)[O-])n1)=N\NC(=O)c1ccc(O)cc1O,inactive
14,CC(C)C1Nc2ccc(C(=O)N3CCN(c4ccccn4)CC3)cc2NC1=O (stereo unspecified),"inconclusive [inhibitor, partial curve, poor fit]"
15,Cc1oc2ncn(CC(C)C)c(=O)c2c1C(=O)Nc1ccc(Cl)cn1,"inconclusive [inhibitor, full curve, poor fit]"
16,C=CCn1c(=N)n(CC(=O)c2ccc(Br)s2)c2ccccc21,"inconclusive [inhibitor, single point]"
17,Cc1ccc(NC(=S)NC(=O)Cc2ccccc2)c(O)c1,"inconclusive [inhibitor, partial curve]"
18,CCCCNc1c(-c2ccc(OC)c(SC(C)CC)c2)nc2ccc(Cl)cn12 (stereo unspecified),active: 25.9 µM
19,CCC(=O)OC1CC(C)N(C(=O)c2ccccc2)c2ccc(C)cc21 (stereo unspecified),active: 11.2 µM
20,C=CCN1C(=O)S/C(=C/c2ccsc2)C1=O,"inconclusive [inhibitor, single point]"
21,CC(=O)Nc1ccc(/C=C/c2nc(-c3ccccc3O)n[nH]2)cc1,"inconclusive [inhibitor, partial curve]"
22,CCC(=NOCc1ccccc1)C(=O)NNS(=O)(=O)c1ccc(C)cc1,inactive
23,Cc1cccc(-n2cc(-c3ccccc3)nc2SCC(=O)Nc2ccccc2Cl)c1,"inconclusive [inhibitor, single point]"
24,CC(C)n1cc(/C=N/Nc2ccc(C(=O)O)cc2)c2ccccc21,inactive

row,Compound,Potency
1,COc1cc2c(cc1OC)-c1nnc(-c3ccco3)n1C1(CCCC1)C2,"inconclusive [inhibitor, single point]"
2,CC1CC2=C(NC(=S)NC2c2cccc(F)c2)/C(=C/c2cccc(F)c2)C1 (stereo unspecified),"inconclusive [inhibitor, single point]"
3,COc1ccc(Nc2nc(N3CCCCC3)nc3ccccc23)c(OC)c1,"inconclusive [inhibitor, single point]"
4,CC(C)N(C(=O)COC(=O)c1cncc(Br)c1)C(C)C,"inconclusive [inhibitor, single point]"
5,CCCc1nc2c(sc3nc4c(cc32)COC(C)(C)C4)c(=O)n1CCN(CC)CC,"inconclusive [inhibitor, single point]"
6,CCCCNS(=O)(=O)c1ccc2nc(SCC(=O)Nc3cc(C)cc(C)c3)[nH]c2c1,"inconclusive [inhibitor, single point]"
7,O=C(NCC1CCC(C(=O)O)CC1)c1cccnc1 (stereo unspecified),inactive
8,CNCc1ccccc1Sc1cccc(O)c1,inactive
9,CC1(C)CC(NC(=O)c2cccc(S(=O)(=O)N(Cc3ccccc3)c3ccccc3)c2)CC(C)(C)N1,"inconclusive [inhibitor, single point]"
10,O=C(C1CCCCC1)N(Cc1ccccc1)c1ccccn1,"inconclusive [inhibitor, single point]"
11,FC(F)Sc1ccc(NC(=S)NCC2CCCCC2)cc1,"inconclusive [inhibitor, single point]"
12,COc1ccc(-c2nc3ccccn3c2NC2CCCCC2)cc1SC1CCCCC1,"inconclusive [inhibitor, single point]"
13,CCn1c(CNC(=O)c2cccnc2)cc2ccccc21,inactive
14,Cn1c(=O)c2c(ncn2CC(=O)NC[C@H]2O[C@@H](n3cnc4c(N)ncnc43)[C@H](O)[C@@H]2O)n(C)c1=O,inactive
15,CCOc1ccc(C(=O)NCC(=O)NCCSc2ccc(Br)cc2)cc1OCC,"inconclusive [inhibitor, single point]"
16,O=C(NCc1ccccc1Cl)C1CCCN(c2nc3ccccc3n3cccc23)C1 (stereo unspecified),active: 18.4 µM
17,Cn1c(N)c(C(=O)CNC2CCCCC2)c(=O)n(C)c1=O,inactive
18,CCOC(=O)c1c(C=O)c(C)n(Cc2ccc(C)cc2)c1C,"inconclusive [inhibitor, single point]"
19,O=C1C2C3C=CC(C2C(=O)N1CCO)C1C(=O)N(CCO)C(=O)C31 (stereo unspecified),inactive
20,CCOc1ccc(CNCCNC(=O)c2nonc2N)cc1,inactive
21,CC(C)c1ccc(NS(=O)(=O)c2ccc3[nH]cc(C(=O)NC4CCCCC4)c(=O)c3c2)cc1,"inconclusive [inhibitor, single point]"
22,Cc1cccc(OCCn2nnc3sc4c(c3c2=O)CCCC4)c1,"inconclusive [inhibitor, single point]"
23,CN(Cc1ccccc1Cl)C(=O)C1CC(=O)N(c2ccc3c(c2)OCCO3)C1 (stereo unspecified),"inconclusive [inhibitor, single point]"
